The whole screen tested about 390,000 compounds, of which about 2,200 (0.56%) were called active. The shares of active, inactive and inconclusive entries below differ from those in the screen. The call rests on the fitted dose curve; in most records, active means well fitted inhibition curve with a large enough effect; inconclusive means small, poorly fitted or top-dose-only effect; inactive means no such curve, though single readings can be large or run the other way. Potencies of inconclusive entries are doubtful fits and often do not repeat.
Biological target: Chromobox protein homolog 1 (Homo sapiens) (UniProt P83916)
UniProt P83916, sequence (P83916 whole entry, looked up): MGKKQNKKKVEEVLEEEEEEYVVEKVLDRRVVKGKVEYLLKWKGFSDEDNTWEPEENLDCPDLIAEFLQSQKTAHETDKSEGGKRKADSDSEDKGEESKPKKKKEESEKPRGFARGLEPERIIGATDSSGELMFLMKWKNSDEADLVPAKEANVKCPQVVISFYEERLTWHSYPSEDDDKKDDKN
Test: HTS for Inhibitors of HP1-beta Chromodomain Interactions with Methylated Histone Tails; further: nearly all actives have a fitted effect of over 70% in size
Conditions: AlphaScreen HP1-beta / biotin-H3K9me3 peptide binding; series mostly up to 114 µM
Procedure, shortened: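 Compound inhibition of the preformed complex between 50 nM HP1-beta and 50 nM biotinylated H3K9me3 peptide was read by AlphaScreen. Buffer was PBS pH 7.4 with 0.01% Tween-20. Incubations ran 30 min at room temperature, with 10 ug/mL donor/acceptor beads.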
Potency means the concentration at half of the fitted maximal effect; tags describe the fitted curve by direction and shape.

Which Potency does the source give for Cc1sc2ncn(-n3c(C)ccc3C)c(=O)c2c1C here?
The Potency was “inactive”.

Nc1cc2c(cc1Cl)-c1ccc(Cl)cc1C2=O was tested. Which Potency did it give?
The Potency was “inactive”.

How did the Potency turn out when O=C(c1cccc(F)c1)N1CCC(N2CCOCC2)CC1 was run?
The Potency was inconclusive: 14.1 µM [inhibitor, full curve, poor fit].

How did the Potency turn out when c1ccc(N/N=C(\Cc2ncc[nH]2)c2ccccc2)cc1 was run?
The Potency was inconclusive: 70.8 µM [inhibitor, partial curve].

With O=c1/c(=C/c2ccco2)sc2n1CN(c1cccc(Br)c1)CN=2 as the compound, how does the Potency read?
Its Potency is inconclusive: 11.2 µM [inhibitor, partial curve, poor fit].

How did the Potency turn out when CCCCC1(C)NC(=S)N2N1C(=S)NC2(C)CCCC (stereo not drawn) was run?
The Potency was inconclusive: 89.1 µM [inhibitor, single point].

CCOC(=O)c1c(C)[nH]c(CCC(=O)Nc2ccc(N(CC)CC)cc2C)c1C was tested. Which Potency did it give?
Its Potency is “inactive”.

Which Potency does the source give for CCOc1cc(C2CC(=O)N3CN(C4CCCCC4)CSC3=C2C#N)ccc1O (stereo not drawn) here?
Its Potency is inconclusive: 22.4 µM [inhibitor, full curve].

With CCOCCCNC(=O)N1CCN(S(=O)(=O)c2ccc3c(ccn3C)c2)CC1 as the compound, how does the Potency read?
The Potency was “inactive”.

Which Potency does the source give for Cc1ccc(C(C)C)c(OCC(O)CN2CC(C)OC(C)C2)c1 (stereo not drawn) here?
The Potency was “inactive”.

How did the Potency turn out when COc1ccc(-c2coc3cc(OC(C)=O)ccc3c2=S)cc1 was run?
The Potency was inconclusive: 10 µM [inhibitor, partial curve].

With COc1cc2c(ccc3cc(OC)c(OC)c(O)c32)cc1O as the compound, how does the Potency read?
Its Potency is inconclusive: 10 µM [inhibitor, full curve, poor fit].

How did the Potency turn out when COc1ccccc1Nc1nc(-c2sc(NC(=O)CC(C)C)nc2C)cs1 was run?
Its Potency is “inactive”.

Which Potency does the source give for Cc1c(Cl)ccc2c1NC(=O)[C@]21N[C@@H](CCC(N)=O)[C@H]2C(=O)N(c3ccc(F)cc3)C(=O)[C@H]21 here?
The Potency was “inactive”.

For O=C(O)c1cc(N/N=C/c2ccc(N3CCOCC3)s2)ccc1Cl, which Potency is on record?
Its Potency is inconclusive: 70.8 µM [inhibitor, partial curve].

COc1ccc(N2CCN(C(=O)c3ccc(Br)cc3)CC2)c([N+](=O)[O-])c1 was tested. Which Potency did it give?
The Potency was inconclusive: 39.8 µM [inhibitor, partial curve].

Which Potency does the source give for Cn1nc(C(=O)Nc2ccccc2)c2c1-c1ccccc1S(=O)(=O)C2 here?
Its Potency is “inactive”.

With CN(C)CCOc1ccc2ccccc2c1 as the compound, how does the Potency read?
The Potency was inconclusive: 2.82 µM [inhibitor, full curve].

Oc1cc(O)c(CN2CCOCC2)cc1CN1CCOCC1 was tested. Which Potency did it give?
Its Potency is active: 70.8 µM.

How did the Potency turn out when CNc1ccc(/C=C2\CSc3ccccc3C2=O)cc1[N+](=O)[O-] was run?
The Potency was inconclusive: 28.2 µM [inhibitor, partial curve].

With Cc1ccc2[nH]c(=O)c3cc(C(=O)N4CCN(c5ccccc5F)CC4)sc3c2c1 as the compound, how does the Potency read?
The Potency was “inactive”.

Which Potency does the source give for COc1ccccc1CN1CCN(Cc2ccco2)CC1 here?
Its Potency is inconclusive: 17.8 µM [inhibitor, full curve].

Which Potency does the source give for O=C(CSc1nc2ncccc2[nH]1)NC1CCCCC1 here?
Its Potency is inconclusive: 35.5 µM [inhibitor, partial curve, poor fit].

With COc1ccc(-c2cnc(NCc3ccc(C)cc3)n2C)cc1 as the compound, how does the Potency read?
The Potency was inconclusive: 15.8 µM [inhibitor, full curve].

Which Potency does the source give for COc1ccc(OC)c(CNc2ncc(-c3ccc(F)cc3)n2C)c1 here?
The Potency was inconclusive: 20 µM [inhibitor, full curve].

How did the Potency turn out when CCN(CC)c1nc2c(S(=O)(=O)c3ccc(C)cc3)nnn2c2ccsc12 was run?
Its Potency is “inactive”.

O=C(CN1C(=O)c2cccc3cccc1c23)NC1CCCC1 was tested. Which Potency did it give?
The Potency was “inactive”.

Which Potency does the source give for O=[N+]([O-])c1ccc(C2CCCC/C2=N/OCc2ccccc2F)c([N+](=O)[O-])c1 (stereo not drawn) here?
The Potency was inconclusive: 35.5 µM [inhibitor, partial curve].

With COc1cc(-c2nc3ccccn3c2/N=C/c2ccccc2)ccc1O as the compound, how does the Potency read?
Its Potency is inconclusive: 44.7 µM [inhibitor, partial curve].

Which Potency does the source give for O=C(CCN1C(=O)/C(=C/c2ccco2)SC1=S)Nc1ccc(C(=O)O)c(O)c1 here?
The Potency was active: 50.1 µM.

Which Potency does the source give for FC(F)(F)c1ccccc1CN1CCC(Cc2ccccc2)CC1 here?
The Potency was inconclusive: 20 µM [inhibitor, full curve].

How did the Potency turn out when COc1ccccc1Cn1[nH]nnc1=S was run?
The Potency was inconclusive: 50.1 µM [inhibitor, partial curve].

CN1CCN(CCCNCc2cn(CCC#N)c3ccccc23)CC1 was tested. Which Potency did it give?
The Potency was inconclusive: 12.6 µM [inhibitor, full curve].

CCOC(=O)c1c(N)sc(C(N)=O)c1C was tested. Which Potency did it give?
Its Potency is inconclusive: 31.6 µM [inhibitor, partial curve].

For COc1ccc(-c2ccc(=O)n(CC(=O)Nc3ccc(N(C)C)cc3)n2)cc1, which Potency is on record?
Its Potency is inconclusive: 44.7 µM [inhibitor, partial curve].

How did the Potency turn out when O=C1c2ccccc2NC(c2ccccc2O)N1Cc1ccco1 (stereo not drawn) was run?
The Potency was “inactive”.

How did the Potency turn out when CC(C)N(Cc1ccccc1)C(=O)COC(=O)C1CCN(c2ccc(C(F)(F)F)cn2)CC1 was run?
The Potency was inconclusive: 31.6 µM [inhibitor, single point].

Which Potency does the source give for Cc1cc(C)cc(N(CC(=O)N2CCCC2)S(C)(=O)=O)c1 here?
The Potency was “inactive”.

Which Potency does the source give for O=C(CSc1ccccn1)Nc1ccc2c(c1)oc1ccccc12 here?
Its Potency is “inactive”.

For CCOCc1[nH]c(=S)[nH]c(=O)c1Cc1ccc(OCC(C)C)cc1, which Potency is on record?
The Potency was “inactive”.

Which Potency does the source give for Cc1cc(=O)nc2c3ccccc3n(CC(=O)NCCCN3CCOCC3)n12 here?
Its Potency is “inactive”.

How did the Potency turn out when C(=N\NC1=Nc2cccc3cccc1c23)/c1ccccc1 was run?
The Potency was “inactive”.

Which Potency does the source give for O=C1NC(=Nc2ccccc2)S/C1=C\C=C\c1ccco1 here?
The Potency was inconclusive: 17.8 µM [inhibitor, partial curve, poor fit].

How did the Potency turn out when CC(C)(c1ccc(O)c([N+](=O)[O-])c1)c1ccc(O)c([N+](=O)[O-])c1 was run?
The Potency was inconclusive: 56.2 µM [inhibitor, single point].

For COc1ccc(C)cc1NCc1ccc(OC)c(C)c1OC, which Potency is on record?
Its Potency is inconclusive: 15.8 µM [inhibitor, full curve, poor fit].

CN(CCOc1ccccc1)CC(=O)Nc1cccc(Br)c1 was tested. Which Potency did it give?
Its Potency is “inactive”.

Which Potency does the source give for COc1ccc(NC(=O)CN(C)C2CCCCC2)c([N+](=O)[O-])c1 here?
The Potency was inconclusive: 56.2 µM [inhibitor, partial curve, poor fit].

Which Potency does the source give for Cn1c(C(=O)N2CCC(C(=O)NCCc3ccccc3)CC2)cc2sccc21 here?
Its Potency is “inactive”.

— PubChem BioAssay AID540317 (National Center for Advancing Translational Sciences (NCATS), 2011)
